Measured values taken from ChEMBL document CHEMBL4888484, “Replenishing the malaria drug discovery pipeline: Screening and hit evaluation of the MMV Hit Generation Library 1 (HGL1) against asexual blood stage Plasmodium falciparum ,using a nano luciferase reporter read-out” (2022).
The campaign covered roughly 150,000 compounds. About 540 (0.36%) showed an effect of 50% or more. The list shows a part of the results.

tested on: Plasmodium falciparum; assay: Primary screen in NF54 nanoGlo assay, in single point, at 2uM, 72h; a lower Z score goes with more inhibition; assay type: functional, Erythrocyte; settings: timepoint 72 hour

| Structure (SMILES) | % Inhibition | Z score |
| --- | --- | --- |
| COc1ccncc1CN[C@H]1CCc2cccnc2CC1 | -6% | 0.84 |
| COCC1(O)CN(C(=O)C(C)(C)C2CCC(O)CC2)C1 (configuration not stated) | 2% | -0.29 |
| Cc1ccc(NC(=O)N[C@@H](C)C(=O)O)c(C)c1 | 0% | 0.02 |
| O=C(C[C@H]1C(=O)NCCN1Cc1ccoc1)NCCc1cscn1 | -18% | 1.66 |
| CC(=O)Nc1ccc(S(=O)(=O)NCCc2cn(C)c3ncccc23)cc1 | -16% | 1.87 |
| FC(F)(F)c1cc(-c2ccncc2)nc2c1c(-c1ccc(Cl)cc1)nn2-c1ccc(Cl)cc1 | -9% | 0.87 |
| CS(=O)(=O)N1CCCCC1CNC(=O)[C@@]12C[C@@H]1COC21CCC1 (some centres not stated) | -18% | 1.88 |
| CCCN(CC(=O)Nc1ccc(F)c(F)c1F)C(=O)c1cc(S(=O)(=O)N(C)C)ccc1N1CCCC1 | -9% | 1.6 |
| Cc1cccc(N(C)Cc2nccs2)n1 | -16% | 1.86 |
| CC(C)(C)OC(=O)NC[C@@H]1CCCN(CCCO)[C@@H]1C(F)(F)F | -7% | 0.64 |
| O=C(Nc1cccc(-c2ncc[nH]2)c1)c1ccccc1Br | 1% | -0.11 |
| C#CCCC1(CCC(=O)N2CCn3nccc32)N=N1 | -8% | 1.05 |
| CCc1n[nH]cc1C(=O)N1CCCC[C@@H]1CCc1ccccc1 | -1% | 0.15 |
| O=C(Cn1cc(F)ccc1=O)N1CCCc2ccccc21 | -16% | 2.21 |
| Cc1cc(C)c2c(N)c(C(=O)N(c3ccccc3)c3c(Cl)cccc3Cl)sc2n1 | -4% | 0.81 |
| CCOc1ccc(S(N)(=O)=O)cc1-c1nc(CC)no1 | -7% | 1.27 |
| NC(=O)C1CCN(CCCn2c(=O)[nH]c3ccccc32)CC1 | -12% | 1.83 |
| CCn1c(Cc2ccncc2)nnc1N1CCC(C)(COC)CC1 | -9% | 1.02 |
| CC(C)(C)[C@@](C)(C#N)NC(=O)Cc1ccc(F)cc1 | 16% | -1.88 |
| Cc1ncsc1C(=O)N1CCC2(CCC(=O)N(CCc3c[nH]cn3)C2)CC1 | -7% | 0.68 |
| CC(C)CCC(=O)N1CCC(N2CCC[C@H](C(=O)NCc3ccccn3)C2)CC1 | -2% | 0.28 |
| O=C(CCc1ccon1)N1CCC(Cc2c(F)cccc2F)CC1 | -11% | 1.34 |

| Structure (SMILES) | % Inhibition | Z score |
| --- | --- | --- |
| O=S(=O)(Nc1cc(F)c(F)cc1Cl)c1cnn([C@H]2CCOC2)c1 | 15% | -1.29 |
| Cn1ccc(NC(=O)COc2ccc(OCc3ccccc3)cc2)n1 | -7% | 1.01 |
| O=C(N[C@H]1CCN(c2ccc3nncn3n2)C1)OCC1CCC1 | -17% | 2.78 |
| CC1(NC(=O)CCc2cncc(F)c2)CCCCCC1 | -8% | 0.97 |
| CCc1nc(N(CCC(=O)NCc2ccco2)CC(C)C)c2cc(Cl)cc(Cl)c2n1 | 10% | -0.94 |
| CCc1noc([C@H](C)N2CCOc3cc(OC)ccc3C2)n1 | -2% | 0.35 |
| COc1cc(C(=O)Nc2[nH]c(=O)ncc2F)ccc1Cl | 76% | -11.96 |
| O=C(CCc1ccccc1)OC1CN(c2nc3ccccc3s2)C1 | -10% | 1.1 |
| CCc1nccn1Cc1cnc2ccccn12 | -8% | 1.25 |
| COc1ccccc1[C@H]1CCCNCC1 | 9% | -0.83 |
| CC1CC(NC(=O)C(c2ccccc2)c2ccccc2)CC(C)(C)C1 (configuration not stated) | 3% | -0.33 |
| CCc1nn(C)cc1CNC1CCCCC1C(N)=O (configuration not stated) | -2% | 0.24 |
| COc1ccc(-c2noc(CCCC(=O)Nc3ccc4c(c3)OCCO4)n2)cc1OC | -11% | 1.01 |
| CCCn1ncc(C(=O)N2C[C@H](O)CO2)c1C | -12% | 1.08 |
| CC(C)c1noc(-c2ccnc(N3C[C@H](C(=O)N4CCOCC4)[C@@H](C)C3)c2)n1 | -16% | 3.15 |
| O=C(NCc1ccc(S(=O)(=O)N2CCCCCC2)s1)c1ccc(Cl)cc1 | -10% | 1.61 |
| CCCCCN(C)c1ccc(F)cc1CNCc1ccc(C(=O)NC)cc1 | -12% | 1.91 |
| O=C(CCN1CCOC1=O)NCCC1CC2CCC1C2 (configuration not stated) | -14% | 2.36 |
| CS(=O)(=O)c1ccc([C@H]2CC(O)=Nc3c2c(=O)[nH]n3C2CCCCCC2)cc1 | -6% | 0.63 |
| COc1ccc(N2C(=O)CN(CCc3ccc(F)cc3)[C@H]3CS(=O)(=O)C[C@H]32)cc1Cl | -8% | 1.36 |
| Cc1cccc(C[C@H](C)n2ccnc2-c2ccncc2)n1 | 5% | -0.75 |
| Cc1c(C(=O)N2CCOCC2)c(S(=O)(=O)N2CCCc3ccccc32)c(C)n1C | -10% | 1.85 |

| Structure (SMILES) | % Inhibition | Z score |
| --- | --- | --- |
| CCc1nnc(CNC(=O)Nc2ccc(OC(F)(F)F)cc2)s1 | -10% | 1.81 |
| CCN1C(=O)[C@H]2[C@@H](C1=O)[C@@](CO)(C(=O)OC)N[C@H]2c1cccc(C#N)c1 | -6% | 1.09 |
| CC1CC1c1ccc(CNCC2(O)Cc3ccccc3C2)o1 (configuration not stated) | -18% | 1.9 |
| COc1ccc(-c2ccc(=O)n(-c3c(C)noc3C)n2)cc1S(=O)(=O)Nc1ccc(Cl)cn1 | -2% | 0.4 |
| COc1ncccc1CNc1nc2ccccc2o1 | -16% | 2.99 |
| COc1ccc(-c2cccc(C(=O)N3CCNC(=O)[C@@H]3CCO)c2)c(C)c1 | -9% | 1.13 |
| Cc1ccc(OC2CCN(C(=O)c3ncoc3C3CC3)CC2)cc1 | -10% | 1.88 |
| O=C(Nc1ccc(-c2nncs2)cc1)N[C@H]1CCC12CCCC2 | -12% | 1.48 |
| Cc1cc(C(=O)Nc2cnn(CC(=O)N3CC(C)OC(C)C3)c2)ccn1 (configuration not stated) | 8% | -0.96 |
| C[C@](Nc1ccccc1)(C(=O)NCc1ccc(N2CCCC2=O)cc1)c1ccccc1 | -14% | 1.32 |
| CC1=NN=C(O)/C(=C\c2ccccc2)N1 | -15% | 1.7 |
| COc1cc(NC(=O)c2cc(NC3CCC3)cc(S(=O)(=O)N(C)C)c2)cc(OC)c1 | -12% | 1.38 |
| O=C(Nc1ccccc1)OCc1ccc(-c2ccc(Cl)cc2)o1 | 41% | -5.23 |
| Cc1sc2ncnc(N3CCc4onc(C(=O)N(C)C)c4C3)c2c1C | -7% | 0.67 |
| O=C1CC[C@H](Nc2cnc3ccccc3n2)C(=O)N1 | -8% | 1.34 |
| CC(C)(C)c1nc(CN2CCC[C@H]2C2CCCCC2)no1 | -2% | 0.19 |
| CC(=C(F)C(=O)N1CCC(Cc2c[nH]cn2)CC1)C1CC1 | -4% | 0.77 |
| O=C(CCCn1cncn1)NC1CCCCC1Oc1ccccc1 (configuration not stated) | -9% | 0.93 |
| COc1cc2c(cc1C(=O)N[C@H]1CCOC[C@@H]1OCCN(C)C)CCC2 | -17% | 1.81 |
| Cc1ccc(-c2cc3n(n2)CCC(=O)N3CC(=O)NCc2ccc3c(c2)OCO3)cc1 | 4% | -0.46 |
| CC1CCN(CC(=O)NC(C)(C)C)C(C(C)O)C1 (configuration not stated) | 4% | -0.59 |
| COc1ccccc1Nc1nc(N)nc(CN2CC[S@@+]([O-])C(C)(C)C2)n1 | 0% | 0.01 |

| Structure (SMILES) | % Inhibition | Z score |
| --- | --- | --- |
| CC1CCN(C[C@H]2CCCN(C(=O)CCc3ccccc3)CC2)CC1 | -8% | 1.29 |
| CN(Cc1cccc(OC(F)F)c1)c1nnc(-c2ccon2)s1 | -15% | 2.01 |
| O=C(NCCc1cc2ccccc2o1)c1cccnc1 | 2% | -0.26 |
| O=S(=O)(c1cccc(-c2ccc(Cl)cc2)c1)N1CCC(n2ccnn2)CC1 | -15% | 2.4 |
| CC(C)[C@H](NC(=O)Nc1ccccc1C(F)(F)F)C(=O)O | 3% | -0.37 |
| CC[C@H]1CCCN(C(C)(C)CNC(=O)c2cc(O)ccc2C(F)(F)F)C1 | 1% | -0.27 |
| C[C@H](O)CN1CCN(C(=O)c2cccc(Cn3ccnc3)c2)CC1 | -1% | 0.08 |
| COc1ccc(F)c(-c2cnc3nnc(C)n3c2)c1 | -5% | 0.65 |
| O[C@H]1CC[C@@H]1Nc1nc2cc(F)ccc2o1 | -10% | 1.93 |
| CC(CC(=O)NC(C)c1cnn(C)c1)C(=O)c1ccc(Cl)cc1 (configuration not stated) | -9% | 1.27 |
| NC(=O)CC1(NC(=O)Nc2cccc3c2CCO3)CCC1 | -9% | 1.29 |
| CN1CC(=O)N(CCCC(=O)N2CCC(CC(F)(F)F)CC2)C1=O | 0% | -0.04 |
| O=C(c1ccc(F)cc1)c1ccc(CN2C(=O)c3ccccc3C2=O)o1 | -13% | 2.39 |
| CCN(Cc1noc(CC(C)C)n1)C(=O)CCn1cncn1 | 3% | -0.57 |
| CCc1cccc(NC(=O)CN2C=NS(=O)(=O)c3ccc(C)cc32)c1 | 13% | -1.57 |
| CC(C)NC1CCN(c2ccc(C3OCCO3)c(Cl)c2C#N)CC1 | 5% | -0.8 |
| CN(C(=O)CN1CCC(C(=O)NCc2ccccc2)CC1)c1ccccc1 | 4% | -0.6 |
| CC(C)COc1cncc(N2CC3COCC(C2)O3)n1 | 1% | -0.17 |
| COCCc1nc(CNC(=O)N(C)Cc2cc3cc(F)ccc3[nH]2)no1 | -3% | 0.5 |
| CC(C)(C)c1cc(C(=O)N2CCc3c(F)ccc(C(=O)O)c3C2)[nH]n1 | -5% | 0.71 |
